{"source": "PubChem BioAssay AID624173", "about": "(National Center for Advancing Translational Sciences (NCATS), 2012)", "note": "The campaign covered roughly 410,000 compounds. About 490 (0.12%) were called active. Inconclusive means that the source gave no clear call. Such entries were picked first, then a sample of the others. The call rests on the fitted dose curve; in most records, active means well fitted inhibition curve with a large enough effect; inconclusive means small, poorly fitted or top-dose-only effect; inactive means flat fitted curve, though single readings scatter. A potency beside an inconclusive call is a rough fit, not a confirmed value."}
{"target": "pyruvate kinase (Trypanosoma brucei) (UniProt Q57TT1)", "experiment": "qHTS of Trypanosoma Brucei Inhibitors; further: nearly all actives have a fitted effect of over 50% in size; further: potency means the concentration at half of the fitted maximal effect; tags describe the fitted curve by direction and shape", "details": "TbPYK enzyme, Kinase-Glo Plus ATP luminescence, 45 min; series mostly up to 76.8 µM", "in_short": "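Readout: single end-point luminescence (Kinase-Glo Plus, 10 min). Reaction conditions were TbPYK/substrate plus 130 uM ADP, 45 min at RT, pH 7.2 TEA buffer. No-enzyme wells served as controls, and data were normalized before concentration-response fitting.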"}
{"compound": "CCn1c(C(C)NC(=O)c2cccc(C)c2)n[nH]c1=S", "note": "(centres undefined)", "Potency": "inconclusive: 22.4 µM [inhibitor, partial curve, poor fit]"}
{"compound": "Cc1ccnc2nc(C(=O)Nc3nnc(-c4ccc(Cl)cc4)o3)nn12", "Potency": "inconclusive: 31.6 µM [inhibitor, single point]"}
{"compound": "CC1(C)Cc2c(C#N)c(NCC3CCCO3)nc(-c3ccco3)c2CO1", "note": "(centres undefined)", "Potency": "inconclusive: 22.4 µM [inhibitor, partial curve, poor fit]"}
{"compound": "N#Cc1ccc2sn(-c3ccccc3)c(=O)c2c1", "Potency": "active: 3.98 µM"}
{"compound": "CCCCCC(=O)Nc1cc(S(=O)(=O)O)cc2cc(S(=O)(=O)O)cc(O)c12", "Potency": "inconclusive: 25.1 µM [inhibitor, partial curve]"}
{"compound": "Cc1cccc(-n2c(-c3csc4ccccc34)n[nH]c2=S)c1", "Potency": "inconclusive: 11.2 µM [inhibitor, partial curve]"}
{"compound": "Cn1c(NC(=O)/C=C/c2c(F)cccc2Cl)cc(=O)n(C)c1=O", "Potency": "inactive"}
{"compound": "CN(C)C(=O)Oc1ccc(OC(=O)c2ccccc2)cc1", "Potency": "inconclusive: 35.5 µM [inhibitor, single point]"}
{"compound": "Cc1ccc2c(c1)sc[n+]2Cc1ccccc1", "Potency": "inconclusive: 31.6 µM [inhibitor, partial curve, poor fit]"}
{"compound": "c1ccc(CCc2nn3c(C4COc5ccccc5O4)nnc3s2)cc1", "note": "(centres undefined)", "Potency": "inconclusive: 10 µM [inhibitor, partial curve, poor fit]"}
{"compound": "S=c1[nH]nc(-c2ccc3ccccc3n2)n1Cc1ccccc1", "Potency": "inconclusive: 11.2 µM [inhibitor, partial curve, poor fit]"}
{"compound": "COc1ccc(-c2n[nH]c(C)c2-c2cc(OC)ccc2O)cc1", "Potency": "inconclusive: 28.2 µM [inhibitor, single point]"}
{"compound": "CCOC(=O)c1ccc(NS(=O)(=O)c2c(C)[nH]c(C)c2C(=O)N2CCCCC2)cc1", "Potency": "inactive"}
{"compound": "CN(C)S(=O)(=O)c1ccc(-c2ccccc2)cc1", "Potency": "inconclusive: 35.5 µM [inhibitor, single point]"}
{"compound": "Cc1ccc(C)c(S(=O)(=O)ON2C(=O)c3ccccc3C2=O)c1", "Potency": "inconclusive: 20 µM [inhibitor, partial curve]"}
{"compound": "COCc1n[nH]c(=S)n1-c1ccccc1", "Potency": "inconclusive: 17.8 µM [inhibitor, partial curve, poor fit]"}
{"compound": "CCc1cc(-c2n[nH]c(=S)n2CC)cs1", "Potency": "active: 10 µM"}
{"compound": "CC(C)(C)N(Cc1ccccc1)C(=O)COC(=O)CSc1ccc([N+](=O)[O-])cc1", "Potency": "inconclusive: 35.5 µM [inhibitor, single point]"}
{"compound": "CCSc1ncc(Cl)c(C(=O)Nc2ccc(S(=O)(=O)N3CCC(C)CC3)cc2)n1", "Potency": "inactive"}
